{"source": "PubChem BioAssay AID686978", "about": "(National Center for Advancing Translational Sciences (NCATS), 2013)", "note": "The campaign covered roughly 420,000 compounds. About 64,000 (15%) were called active. Inconclusive results, whose numbers are uncertain, are shown with a selection of clear calls. The call rests on the fitted dose curve; in most records, active means well fitted inhibition curve with a large enough effect; inconclusive means small, poorly fitted or top-dose-only effect; inactive means flat fitted curve, though single readings scatter. No potency is given beside an inconclusive call; the fits are too rough."}
{"test": "qHTS for Inhibitors of human tyrosyl-DNA phosphodiesterase 1 (TDP1): qHTS in cells in absence of CPT; further: nearly all actives have a fitted effect of over 55% in size; further: potency means the concentration at half of the fitted maximal effect; tags describe the fitted curve by direction and shape; on activity change, negative = growth inhibition: on the % scale 0 is the no-effect control and ±100 the full control effect", "conditions": "DT40 Tdp1-/- hTDP1 cells, no CPT, ATP luminescence, 48 h; activity change, negative = growth inhibition: at 46.2 µM (top of the series) unless noted", "how_it_was_run": "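Cells were dispensed at 400 per well, compounds added by pin tool, plates incubated ≥48 hr at 37 °C, then CellTiter-Glo added for 30 min at room temperature before luminescence reading. Line: DT40 Tdp1-/- complemented with hTDP1; camptothecin omitted.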"}
{"compound": "CC1C=Cc2ccccc2N1C(=O)c1ccccc1", "note": "(configuration not stated)", "activity change, negative = growth inhibition": "inactive: -28.4%"}
{"compound": "O=c1nc(Oc2ccccc2)nc2ncccn12", "Potency": "inconclusive [inhibitor, single point]"}
{"compound": "CCOC(=O)Cc1ccc(NC(=O)Nc2cc3c(cc2N2CCCCC2)n(C)c(=O)n3C)cc1", "Potency": "active: 2.59 µM"}
{"compound": "Nn1nnc2ccccc21", "Potency": "inconclusive [inhibitor, single point]"}
{"compound": "CC(C)c1ccc(NC(=O)NN2CCOCC2)cc1", "activity change, negative = growth inhibition": "inactive: -0.734%"}
{"compound": "COc1ccc(CN2c3c(Br)cccc3C(=O)CS2(=O)=O)cc1", "Potency": "inconclusive [inhibitor, single point]"}
{"compound": "Cc1ccccc1NC(=O)CN1CCN(c2ccc(F)cc2)CC1", "Potency": "inconclusive [inhibitor, single point]"}
{"compound": "CCOC(=O)c1ccc(COc2nc3ccccc3nc2-c2ccccc2NC(C)=O)o1", "Potency": "inconclusive [inhibitor, partial curve, poor fit]"}
{"compound": "COc1ccc(-n2cc(C(=O)Nc3cc(F)ccc3F)c3ccccc3c2=O)cc1", "Potency": "inconclusive [inhibitor, single point]"}
{"compound": "CCCOc1ccccc1NC(=O)CC1Nc2ccccc2NC1=O", "note": "(configuration not stated)", "activity change, negative = growth inhibition": "inactive: -18.4%"}
{"compound": "CCOC(=O)c1sc(NC(=O)c2ccc(S(=O)(=O)N3CCCCC3)cc2)nc1-c1ccccc1", "Potency": "inconclusive [inhibitor, single point]"}
{"compound": "CCC(CC)N1CCN(Cc2nc3ccc([N+](=O)[O-])cc3c(=O)n2-c2ccccc2F)CC1", "Potency": "inconclusive [inhibitor, single point]"}
{"compound": "O=C(Nc1ccc(F)cc1F)c1ccc2c(c1)CCN2S(=O)(=O)c1ccc(Cl)cc1", "Potency": "inconclusive [inhibitor, single point]"}
{"compound": "CN(C(=O)c1cccc(NC(=O)Cc2ccc(NC(=O)C3CCCN(S(=O)(=O)c4cccc([N+](=O)[O-])c4)C3)cc2)c1)C1CCCC1", "note": "(configuration not stated)", "activity change, negative = growth inhibition": "inconclusive: -31.9% [inhibitor]"}
{"compound": "O=C(Nc1ccccc1Cl)Nc1ccccc1Cl", "Potency": "inconclusive [inhibitor, partial curve]"}
{"compound": "CC(C)C(NC(=O)c1ccc(C(C)(C)C)cc1)C(=O)N1CCCC1", "note": "(configuration not stated)", "Potency": "inconclusive [inhibitor, single point]"}
{"compound": "Cc1ccc(NC(=O)Cn2c(=O)ccc3cc(S(=O)(=O)N4CCC(C)CC4)ccc32)c(C)c1", "Potency": "active: 23.1 µM"}
{"compound": "Cc1cccc(CNC(=O)c2cnn(-c3nccc(-c4cc5ccccc5o4)n3)c2C2CC2)n1", "Potency": "inconclusive [inhibitor, single point]"}
{"compound": "COC(=O)c1sccc1NC(=S)N1CCN(c2cc(C)ccc2C)CC1", "Potency": "inconclusive [inhibitor, single point]"}
{"compound": "CN1C(=O)CC(C(=O)Nc2ccc(F)cc2)SC1=Nc1ccc2c(c1)OCO2", "note": "(configuration not stated)", "activity change, negative = growth inhibition": "inactive: -14.5%"}
{"compound": "CCNC(=O)/C(C#N)=C/c1c(N2CCCCCC2)nc2c(C)cccn2c1=O", "Potency": "active: 23.1 µM"}
{"compound": "COCCCN1C(=O)/C(=C\\c2ccc3c(c2)OCO3)C(C(=O)OC)=C1C", "Potency": "inconclusive [inhibitor, single point]"}
{"compound": "CCNC(=S)NN=C1c2ccccc2-c2ccccc21", "Potency": "active: 3.66 µM"}
{"compound": "CCCCNC(=O)Cn1c2c(c(-c3ccccc3Cl)cc1=O)CCC2", "Potency": "inconclusive [inhibitor, single point]"}
{"compound": "O=C(NCC1CCOCC1)C1Cc2c(-c3ccccc3Oc3ccccc3)ccnc2O1", "note": "(configuration not stated)", "Potency": "inconclusive [inhibitor, single point]"}
{"compound": "CC(CCc1ccccc1)NS(=O)(=O)c1ccccc1", "note": "(configuration not stated)", "Potency": "inconclusive [inhibitor, partial curve]"}
{"compound": "CCc1ccc(NC(=O)c2ccc(NC(=O)C3CCCO3)cc2)cc1", "note": "(configuration not stated)", "activity change, negative = growth inhibition": "inactive: -21.8%"}
{"compound": "O=S(=O)(Cc1cccc(F)c1)c1c[nH]c2ccccc12", "Potency": "inconclusive [inhibitor, full curve, poor fit]"}
{"compound": "COc1ccc(-c2nc(CS(=O)(=O)CC(=O)NCCc3cc(OC)ccc3OC)c(C)o2)cc1", "Potency": "active: 23.1 µM"}
{"compound": "CCOc1ccc(CNC(=O)Cn2ccc3cc(S(=O)(=O)N4CCCCCC4)ccc32)cc1", "Potency": "active: 25.9 µM"}
{"compound": "COc1ccc2oc(=O)c(C(=O)Nc3cccc(C(=O)O)c3)cc2c1", "activity change, negative = growth inhibition": "inactive: -10.2%"}
{"compound": "Cc1cccc(N2C(=O)C(Cc3ccccc3)NC2=S)c1", "note": "(configuration not stated)", "activity change, negative = growth inhibition": "inactive: -10.2%"}
{"compound": "Cc1nc2cnc(Oc3ccccc3)nc2n(C2CC2)c1=O", "activity change, negative = growth inhibition": "inconclusive: -6.23% [inhibitor]"}
{"compound": "Cc1cc(N2CCN(C)CC2)nc2ccc(NC(=S)N3CCN(c4ccccn4)CC3)cc12", "Potency": "inconclusive [inhibitor, single point]"}
{"compound": "Cc1cccc(NC(=O)COc2coc(CN3CCN(c4ccccc4)CC3)cc2=O)c1", "Potency": "active: 18.4 µM"}
{"compound": "O=C(Nc1ccc(Cl)c(Cl)c1)Nc1cc(C(=O)N2CCOCC2)ccc1N1CCCCC1", "Potency": "inconclusive [inhibitor, single point]"}
{"compound": "N#CCCn1cc(C(=O)O)c(-c2cccs2)n1", "activity change, negative = growth inhibition": "inactive: 2.07%"}
{"compound": "CCOc1ccc(-c2cc(C(=O)NCCCN3CCN(CC)CC3)c3ccccc3n2)cc1", "Potency": "inconclusive [inhibitor, single point]"}
{"compound": "Cc1cccc(-c2cnc(C(O)c3ccc(F)c(C)c3)[nH]2)c1", "note": "(configuration not stated)", "Potency": "inconclusive [inhibitor, single point]"}
{"compound": "CC1(C)C[C@H](O)[C@]2(CO)CC[C@]3(C)C(=CCC4[C@@]5(C)CC[C@H](O)C(C)(C)C5CC[C@]43C)[C@@H]2C1", "note": "(some centres not stated)", "Potency": "inconclusive [inhibitor, single point]"}
{"compound": "CC(C)(Oc1ccc(Cl)cc1)C(=O)OCC(=O)NCCc1ccccc1", "activity change, negative = growth inhibition": "inactive: 5.16%"}
{"compound": "COc1ccc(-c2c(-c3ccc(O)cc3O)n[nH]c2C)cc1OC", "Potency": "active: 18.4 µM"}
{"compound": "CCN(CC(=O)Nc1ccc(S(=O)(=O)N2CCCC2)cc1)CC(=O)Nc1cccc(OC)c1", "activity change, negative = growth inhibition": "inactive: -6.85%"}
{"compound": "COc1cc(-c2cc3n(C)c(C)c(CCC(=O)NCc4ccccc4)c(=O)n3n2)cc(OC)c1OC", "activity change, negative = growth inhibition": "inactive: -69.4%"}
{"compound": "COc1ccc(CN=C2Nc3ccccc3CS2)cc1", "Potency": "inconclusive [inhibitor, single point]"}
{"compound": "O=C(c1c[nH]c2ccccc2c1=O)N1CCCCCC1", "activity change, negative = growth inhibition": "inactive: -23.9%"}
{"compound": "COc1cnc(SCc2ccc(Cl)c(Cl)c2)nc1Cl", "Potency": "inconclusive [inhibitor, single point]"}
{"compound": "O=C(OCn1ncc(Cl)c(Cl)c1=O)c1ccc(C(F)(F)F)cc1", "Potency": "active: 5.8 µM"}
{"compound": "CS(=O)(=O)N(CC(=O)Nc1cccc(F)c1)Cc1ccccc1", "Potency": "inconclusive [inhibitor, single point]"}
{"compound": "C/C(=N\\NC(=S)NCc1ccccc1)c1ccco1", "Potency": "inconclusive [inhibitor, single point]"}
{"compound": "O=C(NCc1ccncc1)C(=O)Nc1nccs1", "activity change, negative = growth inhibition": "inactive: 15.7%"}
{"compound": "COc1cccc(-c2cc(C(=O)N3CCN(Cc4ccc5c(c4)OCO5)CC3)on2)c1", "activity change, negative = growth inhibition": "inactive: -11.3%"}
{"compound": "Cc1onc(-c2ccccc2Cl)c1C(=O)NC(C)c1ccccc1", "note": "(configuration not stated)", "activity change, negative = growth inhibition": "inactive: 4.64%"}
{"compound": "CC(=O)c1ccccc1NC(=O)C1CCCN(C(=O)c2ccc(Cl)cc2)C1", "note": "(configuration not stated)", "Potency": "inconclusive [inhibitor, single point]"}
{"compound": "Cc1noc(C)c1S(=O)(=O)N(C)C[C@H]1Oc2ccc(NS(=O)(=O)c3ccccc3)cc2C(=O)N([C@H](C)CO)C[C@@H]1C", "activity change, negative = growth inhibition": "inactive: -9.3%"}
{"compound": "COCC(=O)Nc1ccc2c(c1)[C@@H]1C[C@H](CC(=O)OC)O[C@@H](CO)[C@@H]1O2", "activity change, negative = growth inhibition": "inactive: 2.54%"}
{"compound": "CCOC(=O)C1(Cc2ccc(OC)cc2)CCN(C(=O)c2csc(C)n2)CC1", "Potency": "inconclusive [inhibitor, partial curve, poor fit]"}
{"compound": "Cc1cc(=O)n2cn[nH]c2n1", "activity change, negative = growth inhibition": "inactive: 1.78%"}
{"compound": "Cc1nc2sccn2c(=O)c1S(=O)(=O)N1CCN(c2cccc(C(F)(F)F)c2)CC1", "Potency": "inconclusive [inhibitor, partial curve]"}
{"compound": "COc1ccccc1NC(=O)Nc1nc(CC(=O)Nc2ccc(F)c(F)c2)cs1", "Potency": "active: 14.6 µM"}
{"compound": "O=C(CN(c1cccc([N+](=O)[O-])c1)S(=O)(=O)c1ccccc1)N(Cc1ccccc1)Cc1ccccc1", "Potency": "inconclusive [inhibitor, single point]"}
{"compound": "COc1ccc(-c2c3c(nc4sc(C(=O)Nc5ccccc5)c(N)c24)CCC3)cc1", "activity change, negative = growth inhibition": "inconclusive: -36.9% [inhibitor]"}
{"compound": "Cc1cc2[nH]c(=O)cc(-c3ccccc3)n2n1", "activity change, negative = growth inhibition": "inconclusive: -30.5% [inhibitor]"}
{"compound": "Cc1c(C(=O)NCc2ccc3c(c2)OCO3)sc(=O)n1Cc1ccc(S(=O)(=O)N(C)C)cc1", "Potency": "active: 16.4 µM"}
{"compound": "O=C(Cn1cc(C(=O)C2CC2)c2ccccc21)NCc1ccccc1", "Potency": "inconclusive [inhibitor, single point]"}
{"compound": "Nc1ccc2nc3c(=O)n(C4CCCCC4)c(=O)[nH]c3nc2c1", "Potency": "inconclusive [inhibitor, partial curve]"}
{"compound": "CCOC(=O)c1ccc(N2C(=O)CC(N3CCN(C/C=C/c4ccccc4)CC3)C2=O)cc1", "note": "(configuration not stated)", "activity change, negative = growth inhibition": "inactive: -0.5%"}
{"compound": "C=CCn1c(CSCc2ccc(C)cc2)nnc1SCC(=O)NCc1ccccc1", "Potency": "inconclusive [inhibitor, full curve]"}
{"compound": "COc1ccc(CNc2nc(-c3ccc(Cl)cc3)cc(C(F)(F)F)n2)cc1", "Potency": "active: 18.4 µM"}
{"compound": "CCOc1ccc(C(C)=O)cc1COC(=O)CNC(=O)C12CC3CC(CC(C3)C1)C2", "Potency": "inconclusive [inhibitor, partial curve]"}
{"compound": "CC1CCCN(c2ccc([N+](=O)[O-])s2)C1", "note": "(configuration not stated)", "activity change, negative = growth inhibition": "inactive: 6.84%"}
{"compound": "Cc1ccc(S(=O)(=O)c2nnn3c2nc(N2CCOCC2)c2ccccc23)c(C)c1", "Potency": "inconclusive [inhibitor, single point]"}
